# Assay results published in the supplement of paper PMC3334620.
# In all, about 33,000 sequences were measured (“E-score (-0.5 to 0.5)”: median about -0.01, highest 2% from about 0.26 on). The list shows a part of the results.
# Target: Ste12 (UniProt P13574)
# Assay: PBM E-score (8-mer binding enrichment) (E-score (-0.5 to 0.5)); higher = stronger / more preferred TF binding; most listed sequences are background and not binding sites
# Conditions: protein concentration: 200 nM; construct: GST-DNA-binding domain
# Description: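 Universal 'all 10-mer' protein binding microarrays (Agilent AMADID 015681) probed with GST-tagged S. cerevisiae TFs (full-length or DBD) made by in vitro transcription/translation (PURExpress), about 100-200 nM. Bound TF was detected with fluorescent anti-GST. Each ungapped 8-mer (which stands for itself and its reverse complement) is scored by the PBM enrichment score (E-score), a modified Wilcoxon-Mann-Whitney statistic from -0.5 to +0.5, computed with the Universal PBM Analysis Suite. Scale: above 0.35 generally sequence-specific binding.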
row,Sequence,PBM E-score
1,GCCGCGCC,-0.0977
2,AGATAGTG,0.0758
3,ACTGGAGG,0.0707
4,AGGCTTCA,-0.183
5,ATGTTCCA,0.18
6,CCTAGAAG,-0.0953
7,CTGAATTC,0.0563
8,ACTCTGGA,0.0587
9,AATTCTGT,0.113
10,GCCGAACC,0.0313
11,AACAATTA,0.297
12,GGTGGGAC,-0.0137
13,AACTATCC,-0.156
14,CATCTGAC,-0.222
15,CTACTTAC,0.099
16,CAATGGCA,0.115
17,AGCTATGC,-0.334
18,GAGTAGTA,0.0379
19,CCAGTACC,0.0222
20,CCTACCCG,-0.192
21,CACATAGC,-0.0351
22,AGCCGGGG,-0.15
23,ACTATTTA,0.18
24,CGATCGAA,-0.121
25,ATGGCGCA,-0.118

row,Sequence,PBM E-score
1,AATCCGCG,-0.175
2,CCCTTGGA,0.0266
3,CCAGCGTA,-0.11
4,GGTGTCCA,-0.24
5,ACTGAAAG,0.175
6,GCGTTTCA,0.476
7,CGTTACAC,0.122
8,CTACGCAC,-0.148
9,ATTACACC,0.0634
10,AAAAATGC,0.158
11,GAATTCAA,0.133
12,CCGAGGTA,0.00985
13,GGCATCCA,-0.277
14,GGTTAGCA,-0.0625
15,GAAGCTTC,0.0643
16,CTATTCGA,-0.106
17,CTTGCCGC,0.0209
18,CAAAGTCA,-0.0468
19,AGATGCAC,-0.175
20,AAGTATTG,0.159
21,GGAGCCGA,-0.0732
22,CCCAGTTC,-0.0378
23,TGTCCACA,0.082
24,TATTTGCA,0.0371
25,ACACTGAT,-0.0793

row,Sequence,PBM E-score
1,GTGTTTGA,0.301
2,GCTCCGAA,0.0542
3,AGTATTCC,0.0656
4,CAGCACTA,-0.19
5,CGACCCAC,-0.0211
6,AGGAAGCC,-0.041
7,AATCTTCA,0.179
8,AGGAGATC,0.124
9,AGCCTTAA,-0.074
10,AAGGGTAC,-0.0596
11,AACAAGTG,-0.0717
12,GTGGAGCA,-0.142
13,AAGCATTG,-0.176
14,GAACGGAC,-0.321
15,CGGGGAAG,-0.011
16,AGCTATAA,0.076
17,CCACGTAC,-0.176
18,CAGCGAGA,-0.0417
19,ATGAGCAC,-0.266
20,ACGTGAAG,-0.0672
21,AAAAATCC,0.178
22,ATTCTGGC,0.105
23,AAAGAAAC,0.212
24,GATCCAGC,-0.0767
25,GCTAGGGA,-0.104

row,Sequence,PBM E-score
1,GGCCTAAC,-0.0886
2,CAACTGCC,-0.127
3,CCATGATC,-0.156
4,ATCCACCC,0.00246
5,TCAGTGAA,0.0723
6,ACCTGGCG,-0.0246
7,ACTGATTG,-0.185
8,AACCTATT,0.00865
9,AGGGAACG,-0.186
10,CCCTAAGA,-0.18
11,CTAAAGAC,-0.0162
12,CCAAGACC,-0.0542
13,ATCGTTCA,0.0393
14,AGATATAA,0.201
15,CTTTTTCA,0.208
16,AGTACCAG,-0.134
17,AGTCTGTG,-0.0796
18,ACCTCTGC,0.0141
19,GGACGTGA,-0.248
20,AATGCTTC,-0.0314
21,AATCAGTA,0.117
22,GCGATGTA,0.0264
23,ATTACGTA,0.135
24,GTTAGAAC,0.0739
25,AGCTCGGG,0.0188

row,Sequence,PBM E-score
1,GAGTAAAC,-0.0105
2,ACCTTGAT,0.113
3,TGATGTAA,0.105
4,GTGGTTCA,0.124
5,AATGAGAC,0.0753
6,TCAACCAA,0.0262
7,CGGGCATA,0.112
8,AAGCTGCG,-0.177
9,TAACCGGA,0.0556
10,CACTACAC,-0.126
11,CGTTTGGA,0.0405
12,CTTTGGCC,-0.0517
13,CTCAAATC,0.135
14,AACCAAAG,0.145
15,CCACGGCC,-0.183
16,GCGTCTCA,0.166
17,ACCGCCCA,-0.118
18,AAGAGACA,0.105
19,AACAGGGC,0.0987
20,CCGGGGTA,-0.0884
21,CCAGGGGG,-0.356
22,AATGTGGG,-0.0362
23,ACTGGCCC,-0.0314
24,GCGAACAA,0.0768
25,TGATATCA,0.0573

row,Sequence,PBM E-score
1,ATTATGCG,0.23
2,ATAGGATC,-0.0639
3,ACTGTGAG,0.0709
4,CTATCACA,0.0742
5,GCTTACCA,-0.0225
6,ACCTACTA,0.0356
7,TTACCGAA,0.276
8,CTTTTTTA,0.181
9,CAACATAG,-0.0742
10,CAAACCTA,0.0393
11,AGCATTCC,-0.158
12,ACTCTTGA,-0.146
13,GGGCATAA,0.218
14,TCAATTAA,0.153
15,GAACGTAC,-0.0959
16,ATAACTCA,0.044
17,CTCTTTAA,-0.122
18,ACGCATCG,-0.0965
19,CATACGTA,0.0491
20,GTGATCTA,-0.0995
21,ACCACATA,0.0451
22,CCAAAAAA,0.251
23,GCTCCCCC,-0.206
24,AGGCTGAT,-0.0857
25,GGAGCGAC,-0.0327

row,Sequence,PBM E-score
1,CGTTGGGC,-0.183
2,GAACTCTA,-0.0541
3,AACAAATA,0.341
4,ATTACACG,-0.0414
5,CACACGAC,-0.0543
6,AAGTTGTG,0.0449
7,CGGCATAC,-0.0825
8,AAAAACGT,0.154
9,AGGCTTAC,-0.193
10,GCTAGGTA,-0.131
11,TCCCACGA,-0.0541
12,CCGGACTA,-0.00942
13,TAAACGCA,-0.0738
14,AGATGAAT,0.0609
15,AGGGTAAG,0.15
16,CAACCAAC,-0.2
17,TTCGGAAA,0.209
18,ATTAGATA,-0.0411
19,AGCCTCCA,-0.0421
20,GAATTTCA,-0.0538
21,CTCATTGC,-0.117
22,CCAGGCAC,-0.124
23,CCCTCTCG,-0.0381
24,CTCTGCGC,-0.0429
25,AGTATTGC,-0.0341

row,Sequence,PBM E-score
1,GGTACAAC,0.102
2,CTAGCCTA,-0.0508
3,CCTGACGA,0.087
4,CGCCCTTC,-0.119
5,AGGACGGG,-0.116
6,TAGCGTAA,-0.108
7,CGCCTCAC,-0.00067
8,GCTAAAAC,0.226
9,CAGAGTTC,-0.167
10,CCCGCTAG,-0.163
11,AGTGCCGA,-0.0685
12,GAGATAGC,-0.126
13,GAACTTCA,-0.0769
14,GGTGTCAA,-0.00826
15,AACGCTGT,-0.012
16,AGCCGCAC,-0.17
17,AACGTCAG,-0.155
18,CATCGTTC,-0.0708
19,CAAATGCG,0.162
20,ATTGAACC,0.0955
21,AATATCCC,0.095
22,ATTAGGGC,-0.232
23,GAAGGAAA,0.0147
24,GCAGTTAA,-0.0852
25,TCCTACCA,-0.131

row,Sequence,PBM E-score
1,ATTCCTTG,-0.136
2,ACATCTAC,0.0372
3,GGGTTCGA,-0.226
4,TGAGGGCA,-0.153
5,GGGTCAAC,0.0833
6,CCGGATTC,-0.0592
7,CTCCTACA,-0.0765
8,AACCTGGA,0.0279
9,CCCCTCAG,-0.0536
10,CATACAAC,-0.0361
11,TGCTACAA,0.0358
12,AACCACTT,0.143
13,AGCTTCCC,-0.122
14,CAATTTAG,0.118
15,CGGGTCGC,-0.0355
16,TAGGTAAA,0.00121
17,TGTAGAAA,0.136
18,TCTCATAA,0.0315
19,AAGTCTAA,-0.012
